Reference: PubChem BioAssay AID485281 (National Center for Advancing Translational Sciences (NCATS), 2010)
Where “and” joins values, the source holds several entries; their conditions need not be identical. Identical values can stand only once. The campaign covered roughly 350,000 compounds. About 260 (0.074%) were called active. This list was built around the results that the source calls inconclusive (neither active nor inactive); the mix of calls is not that of the screen. The call rests on the fitted dose curve; in most records, active means well fitted inhibition curve with a large enough effect; inconclusive means small, poorly fitted or top-dose-only effect; inactive means no such curve, though single readings can be large or run the other way. Potencies of inconclusive entries are doubtful fits and often do not repeat.

Molecular target: Ferritin light chain (Equus caballus) (UniProt P02791)
Assay: qHTS Assay for Identification of Novel General Anesthetics; further: nearly all actives have a fitted effect of over 20% in size
Settings: apoferritin/1-aminoanthracene competitive binding, fluorescence; activity change, negative = displacement: at 77.5 µM (top of the series)
Method in brief: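 In PBS, apoferritin at 10 uM is loaded with 1-AMA from a 50% saturated solution. After 10 min of compound exposure at ambient temperature, reduced 535 nm fluorescence indicates probe displacement.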
On the % scale 0 is the no-effect control and ±100 the full control effect; potency means the concentration at half of the fitted maximal effect; tags describe the fitted curve by direction and shape.

Sequence of UniProt P02791 (P02791 whole entry, looked up): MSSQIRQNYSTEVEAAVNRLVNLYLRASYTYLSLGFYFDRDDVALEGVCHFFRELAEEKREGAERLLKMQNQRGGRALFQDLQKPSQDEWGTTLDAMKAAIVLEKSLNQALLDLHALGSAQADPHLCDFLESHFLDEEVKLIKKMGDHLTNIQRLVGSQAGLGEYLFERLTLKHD

Potency, inactive:
Oc1ccc2ccccc2c1N=Nc1ccc(F)cc1
CCN(CC)c1ccc(/C=N/NC(=O)c2ccc(O)cc2)cc1

Potency, inconclusive:
CC(=O)O[C@]1(C(C)=O)CC[C@H]2[C@@H]3C=C(Cl)C4=CC(=O)CC[C@]4(C)[C@H]3CC[C@@]21C 28.2 µM [inhibitor, single point] and 7.08 µM [inhibitor, partial curve]
Cn1c(Nc2ccccc2)nc2ccccc21 28.2 µM [inhibitor, single point]
Cc1cccc(Nc2nc(N)c([N+](=O)[O-])c(N3CCCC(C)C3)n2)c1 (stereo unspecified) 28.2 µM [inhibitor, partial curve]
Cc1cccc(N2C(=O)C3C4C=CC(CC4)C3C2=O)c1 (stereo unspecified) 25.1 µM [inhibitor, partial curve]
Cc1ccc(Nc2nc(Cl)c(C=O)s2)cc1Cl 22.4 µM [inhibitor, partial curve]
CCN1CCCC(OC(=O)c2cc(-c3ccccc3Cl)nc3ccccc23)C1 (stereo unspecified) 11.2 µM [inhibitor, partial curve, poor fit]
O=C(Nc1nnc(SCc2ccccc2F)s1)C1=COCCO1 22.4 µM [inhibitor, partial curve]
N=C1S/C(=C\c2ccco2)C(=O)N1c1ccc2c(c1)OCO2 11.2 µM [inhibitor, partial curve]
CCOC(=O)c1nnn(-c2nonc2-n2cccc2)c1CN1CCC(C(=O)OCC)CC1 28.2 µM [inhibitor, single point]
CCc1ccc(C2CC(c3ccc(Cl)cc3)=NNC2=O)cc1 (stereo unspecified) 35.5 µM [inhibitor, partial curve]
CCCCN(CCCC)C(=O)c1ccccc1NC(=O)CN1C(=O)c2ccccc2C1=O 44.7 µM [inhibitor, single point]
CCOC(=O)c1nc(Nc2ccc(C(=O)OC(C)C)cc2)c2ccccc2n1 14.1 µM [inhibitor, partial curve]
CCOc1ccc2nc(NC(=O)C(NS(=O)(=O)c3cccc4nsnc34)C(C)C)sc2c1 (stereo unspecified) 6.31 µM [inhibitor, partial curve]
C#CCSc1nnnn1-c1ccc(Br)c(C)c1 31.6 µM [inhibitor, single point]
COC(=O)c1sc(NC(=O)CSc2nncs2)c(C(=O)OC)c1C 44.7 µM [inhibitor, partial curve]
CCCOc1ccc(C2c3c(-c4c(C)cc(C)cc4O)n[nH]c3C(=O)N2CCO)cc1 (stereo unspecified) 10 µM [inhibitor, full curve, poor fit]
CC1=CC(C)(C)NC(=S)N1c1cc(C)cc(C)c1 25.1 µM [inhibitor, partial curve]
COc1ccc(N2CCN(C(=O)C3CCCN(S(=O)(=O)c4cccc5cccnc45)C3)CC2)cc1 (stereo unspecified) 15.8 µM [inhibitor, partial curve]
O=C(Nc1cccc(C(F)(F)F)c1)c1cccnc1N1CCN(c2ccccc2)CC1 31.6 µM [inhibitor, partial curve]
Cc1nn(C)c(C)c1Sc1ccc(Br)cc1 22.4 µM [inhibitor, partial curve]
COc1ccc(Nc2oc(COc3ccccc3F)nc2C#N)cc1 15.8 µM [inhibitor, partial curve]
C/C(=N\NC(=O)CNC(=O)c1ccc(F)cc1)c1ccco1 11.2 µM [inhibitor, partial curve]
CCc1ccc(N2CC(C(=O)Nc3nnc(CC)s3)CC2=O)cc1 (stereo unspecified) 39.8 µM [inhibitor, partial curve]
CCN(CC)C(=O)Cn1cc(C(=O)C(=O)N2CCN(c3ccccc3)CC2)c2ccccc21 35.5 µM [inhibitor, single point]
CC(=O)c1cccc(NC(=O)COC(=O)COc2ccccc2C)c1 28.2 µM [inhibitor, partial curve]
CC(C)c1ccccc1NC(=O)c1cccc(NC(=O)c2ccccc2)c1 39.8 µM [inhibitor, partial curve]
CC(C)=C1C2C=CC1C(C(=O)Nc1cc(C)ccc1C)C2C(=O)O (stereo unspecified) 25.1 µM [inhibitor, partial curve]
CC(C)(C)C(=O)COC(=O)c1ccc2c(c1)C(=O)N(Cc1ccco1)C2=O 31.6 µM [inhibitor, single point]
COc1ccc(CNC(=O)C(=O)NCC2OCCCN2S(=O)(=O)c2cccs2)cc1 (stereo unspecified) 22.4 µM [inhibitor, partial curve]
CC(=O)c1ccc(NC(=O)CSCC(=O)Nc2ccc3ccccc3c2)cc1 31.6 µM [inhibitor, partial curve, poor fit]
Clc1ccc(-c2nnc3sc(Cc4cccs4)nn23)cc1 44.7 µM [inhibitor, single point]
O=C(COc1ccccc1)N1CCN(c2ccc([N+](=O)[O-])c(N3CCCCC3)c2)CC1 39.8 µM [inhibitor, partial curve]
Cc1c(C(=O)O)oc2c1-c1nn(Cc3ccc(Cl)cc3)cc1CC2 25.1 µM [inhibitor, partial curve]

Activity change, negative = displacement, inactive:
CCN(CC)c1cc(C)c2cc(NC(=O)CNC(C)=O)ccc2n1 3.35%
CCOC(=O)[C@@H]1[C@H]2COc3ccc(Br)cc3[C@@H]2N2C(=O)N(c3ccc(Br)cc3)C(=O)[C@]12C -15.5%
CCOC(=O)c1cnc2c(ccc3ccccc32)c1NCCO -2.98%
O=C(NCCCc1ccccc1)c1ccccc1 -20.8%
CCOC(=O)/C=C(\C)Sc1cc(O)c2ccccc2c1O -16.6%
CN(C)CCCC1(O)c2ccccc2CCc2ccccc21 -6.9%
